# Test results from the supplement of paper PMC10037445.
# In all, about 2,900 compounds were measured (“IRF Lucia reporter activity, fold change vs agonist alone”: median about 0.9, highest 2% from about 2.8 on). Some of the results follow.
# What was measured:
# RAW-Dual [1] = experiment: IRF Lucia reporter activity, fold change vs agonist alone; higher = enhanced IRF activity; details: library stock concentration (final ~1000-fold dilution): 10 mM, agonist: MPLA (TLR4) […]
# In short: (§1)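 RAW-Dual macrophages (50,000 cells/well in DMEM, 384-well plates) received 50 nL of library stock by pin tool, then a PRR agonist 1 h later, and were kept at 37 °C, 5% CO2. After 20 hours, supernatant was read for IRF by QuantiLuc luminescence and for NF-κB by QuantiBlue absorbance at 620 nm. Reporter activity is fold change over agonist-alone wells. Cytotoxic wells had IncuCyte confluency below 70% of agonist controls in both mask sets.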
# RAW-Dual [2] = experiment: IRF Lucia reporter activity, fold change vs agonist alone; cytotoxicity flag (confluency mask): cytotoxic (confluency <70% of control); higher = enhanced IRF activity
# In short: as §1
# RAW-Dual [3] = experiment: IRF Lucia reporter activity, fold change vs agonist alone; cytotoxicity flag (confluency mask): not cytotoxic; higher = enhanced IRF activity
# In short: as §1
# [4] = cytotoxicity flag (confluency mask): cytotoxic (confluency <70% of control)
# [5] = agonist: 3'3'-cGAMP (STING) 10 ug/mL
# [6] = cytotoxicity flag (confluency mask): not cytotoxic
structure (smiles),measurement,setting,value
CN1CCC(c2c(O)cc(O)c3c(=O)cc(-c4ccccc4Cl)oc23)C(O)C1 (stereo unspecified),IRF Lucia reporter activity,RAW-Dual [1]; [4],0.0203
CN1CCC(c2c(O)cc(O)c3c(=O)cc(-c4ccccc4Cl)oc23)C(O)C1 (stereo unspecified) (library stock concentration (final ~1000-fold dilution): 10 mM),IRF Lucia reporter activity,RAW-Dual [2]; [5],0.0133
same,IRF Lucia reporter activity,RAW-Dual [2]; agonist: LPS (TLR4) 0.1 ug/mL,0.0234
C#CCN(C)Cc1ccccc1.Cl (library stock concentration (final ~1000-fold dilution): 10 mM),IRF Lucia reporter activity,RAW-Dual [3]; [5],1
same,IRF Lucia reporter activity,RAW-Dual [3]; agonist: LPS (TLR4) 0.1 ug/mL,1.2
C#CCN(C)Cc1ccccc1.Cl,IRF Lucia reporter activity,RAW-Dual [1]; [6],1.02
Cl.O=S(=O)(c1cccc2c(I)cccc12)N1CCCNCC1 (library stock concentration (final ~1000-fold dilution): 10 mM),IRF Lucia reporter activity,RAW-Dual [3]; [5],0.226
same,IRF Lucia reporter activity,RAW-Dual [3]; agonist: LPS (TLR4) 0.1 ug/mL,1.09
Cc1ccnc2c1NC(=O)c1cccnc1N2C1CC1,IRF Lucia reporter activity,RAW-Dual [1]; [6],0.79
Cc1ccnc2c1NC(=O)c1cccnc1N2C1CC1 (library stock concentration (final ~1000-fold dilution): 10 mM),IRF Lucia reporter activity,RAW-Dual [3]; [5],0.975
same,IRF Lucia reporter activity,RAW-Dual [3]; agonist: LPS (TLR4) 0.1 ug/mL,1.1
Cc1[nH]c(=O)c(C#N)cc1-c1ccncc1 (library stock concentration (final ~1000-fold dilution): 10 mM),IRF Lucia reporter activity,RAW-Dual [3]; [5],0.993
same,IRF Lucia reporter activity,RAW-Dual [3]; agonist: LPS (TLR4) 0.1 ug/mL,0.966
Cc1[nH]c(=O)c(C#N)cc1-c1ccncc1,IRF Lucia reporter activity,RAW-Dual [1]; [6],0.978
CS(=O)(=O)c1ccc(C2=C(c3ccccc3)C(=O)OC2)cc1 (library stock concentration (final ~1000-fold dilution): 10 mM),IRF Lucia reporter activity,RAW-Dual [3]; [5],1.07
same,IRF Lucia reporter activity,RAW-Dual [3]; agonist: LPS (TLR4) 0.1 ug/mL,0.987
CS(=O)(=O)c1ccc(C2=C(c3ccccc3)C(=O)OC2)cc1,IRF Lucia reporter activity,RAW-Dual [1]; [6],0.958
CO/N=C(\C(=O)NC1C(=O)N2C(C(=O)O)=C(CSc3nnnn3C)CSC12)c1csc(N)n1.CO/N=C(\C(=O)NC1C(=O)N2C(C(=O)O)=C(CSc3nnnn3C)CSC12)c1csc(N)n1.Cl (stereo unspecified) (library stock concentration (final ~1000-fold dilution): 10 mM),IRF Lucia reporter activity,RAW-Dual [3]; [5],0.983
same,IRF Lucia reporter activity,RAW-Dual [3]; agonist: LPS (TLR4) 0.1 ug/mL,1.36
CO/N=C(\C(=O)NC1C(=O)N2C(C(=O)O)=C(CSc3nnnn3C)CSC12)c1csc(N)n1.CO/N=C(\C(=O)NC1C(=O)N2C(C(=O)O)=C(CSc3nnnn3C)CSC12)c1csc(N)n1.Cl (stereo unspecified),IRF Lucia reporter activity,RAW-Dual [1]; [6],1.03
CC(=O)c1cc([N+](=O)[O-])c(Sc2cccc(Cl)c2Cl)s1,IRF Lucia reporter activity,RAW-Dual [1]; [6],1.03
CC(=O)c1cc([N+](=O)[O-])c(Sc2cccc(Cl)c2Cl)s1 (library stock concentration (final ~1000-fold dilution): 10 mM),IRF Lucia reporter activity,RAW-Dual [3]; [5],1.05
same,IRF Lucia reporter activity,RAW-Dual [3]; agonist: LPS (TLR4) 0.1 ug/mL,1.01
CNC(C)C(=O)NC(C(=O)N1CCCC1C(=O)NC(C(=O)NCCCCCCNC(=O)C(NC(=O)C1CCCN1C(=O)C(NC(=O)C(C)NC)C1CCCCC1)C(c1ccccc1)c1ccccc1)C(c1ccccc1)c1ccccc1)C1CCCCC1 (stereo unspecified) (library stock concentration (final ~1000-fold dilution): 10 mM),IRF Lucia reporter activity,RAW-Dual [3]; [5],0.642
same,IRF Lucia reporter activity,RAW-Dual [3]; agonist: LPS (TLR4) 0.1 ug/mL,0.589
O=C(CCCCCCC(=O)NO)NO,IRF Lucia reporter activity,RAW-Dual [1]; [6],0.725
O=C(CCCCCCC(=O)NO)NO (library stock concentration (final ~1000-fold dilution): 10 mM),IRF Lucia reporter activity,RAW-Dual [3]; [5],0.237
same,IRF Lucia reporter activity,RAW-Dual [3]; agonist: LPS (TLR4) 0.1 ug/mL,0.614
FC(F)(F)c1ccc(CNc2ccc(Cc3c[nH]c4ncc(Cl)cc34)cn2)cn1 (library stock concentration (final ~1000-fold dilution): 10 mM),IRF Lucia reporter activity,RAW-Dual [3]; [5],0.0689
same,IRF Lucia reporter activity,RAW-Dual [3]; agonist: LPS (TLR4) 0.1 ug/mL,0.217
CCOC(=O)C(CCc1ccccc1)NC1CCc2ccccc2N(CC(=O)O)C1=O (stereo unspecified),IRF Lucia reporter activity,RAW-Dual [1]; [6],1.04
CCOC(=O)C(CCc1ccccc1)NC1CCc2ccccc2N(CC(=O)O)C1=O (stereo unspecified) (library stock concentration (final ~1000-fold dilution): 10 mM),IRF Lucia reporter activity,RAW-Dual [3]; [5],1.01
same,IRF Lucia reporter activity,RAW-Dual [3]; agonist: LPS (TLR4) 0.1 ug/mL,0.636
O=C(C=Cc1ccc(O)cc1)c1ccc(O)cc1O (library stock concentration (final ~1000-fold dilution): 10 mM),IRF Lucia reporter activity,RAW-Dual [3]; [5],0.252
same,IRF Lucia reporter activity,RAW-Dual [3]; agonist: LPS (TLR4) 0.1 ug/mL,0.535
CN(C)CCCN1c2ccccc2Sc2ccc(Cl)cc21.Cl (library stock concentration (final ~1000-fold dilution): 10 mM),IRF Lucia reporter activity,RAW-Dual [3]; [5],1.07
same,IRF Lucia reporter activity,RAW-Dual [3]; agonist: LPS (TLR4) 0.1 ug/mL,1.51
CN(C)CCCN1c2ccccc2Sc2ccc(Cl)cc21.Cl,IRF Lucia reporter activity,RAW-Dual [1]; [6],1.07
CN(C)c1ccc2nc3ccc(=[N+](C)C)cc-3sc2c1,IRF Lucia reporter activity,RAW-Dual [1]; [4],0.725
CN(C)c1ccc2nc3ccc(=[N+](C)C)cc-3sc2c1 (library stock concentration (final ~1000-fold dilution): 10 mM),IRF Lucia reporter activity,RAW-Dual [2]; [5],0.441
same,IRF Lucia reporter activity,RAW-Dual [2]; agonist: LPS (TLR4) 0.1 ug/mL,1.07
COc1cc(/C=C/C(=O)N2CCC=CC2=O)cc(OC)c1OC (library stock concentration (final ~1000-fold dilution): 10 mM),IRF Lucia reporter activity,RAW-Dual [3]; [5],0.0368
same,IRF Lucia reporter activity,RAW-Dual [3]; agonist: LPS (TLR4) 0.1 ug/mL,0.0524
same,IRF Lucia reporter activity,RAW-Dual [2]; [5],0.0101
same,IRF Lucia reporter activity,RAW-Dual [2]; agonist: LPS (TLR4) 0.1 ug/mL,0.00877
COc1cc(/C=C/C(=O)N2CCC=CC2=O)cc(OC)c1OC,IRF Lucia reporter activity,RAW-Dual [1]; [6],0.0498
